From the supplement of paper PMC4166925
± gives the standard deviation of the averaged measurements. In all, about 33,000 sequences were measured (“E-score (dimensionless, -0.5 to 0.5)”: median about -0.049, highest 2% from about 0.37 on). Some of the results follow.

What follows are sequences tested on T1, PmTbr T-box DNA-binding domain (GST fusion) (assay: PBM E-score of 8-mer (E-score (dimensionless, -0.5 to 0.5)); Tbr is Tbrain of the sea star Patiria miniata (Pm) or the sea urchin Strongylocentrotus purpuratus (Sp); higher = stronger binding preference; most listed sequences are background and not binding sites). Conditions: the construct has about 5 more residues each side.
T1 sequence: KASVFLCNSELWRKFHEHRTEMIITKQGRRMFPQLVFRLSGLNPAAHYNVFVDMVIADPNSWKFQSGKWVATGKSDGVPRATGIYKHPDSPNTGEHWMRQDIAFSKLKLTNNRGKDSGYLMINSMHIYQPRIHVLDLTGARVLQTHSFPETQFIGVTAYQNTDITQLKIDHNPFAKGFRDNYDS
Method in brief: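 GST-fused Tbr T-box DNA-binding domains (the whole T-box plus about five flanking residues) were expressed in BL21 E. coli at 20 °C and purified by glutathione affinity chromatography. Universal Agilent oligonucleotide arrays were made double-stranded by primer extension, incubated with 200 nM protein in PBS (pH 7.5), then scanned and quantified. Every ungapped 8-mer was scored from probe intensities. The Universal PBM Analysis Suite gave each word an enrichment E-score, averaged over duplicate arrays.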

Sequence | PBM E-score of 8-mer
AAAATACC | -0.186 ± 0.053
AAGACCCC | -0.317 ± 0.022
TAATGGAA | -0.136 ± 0.095
CGAATCAC | 0.124 ± 0.029
AAGGAACC | -0.0959 ± 0.045
AAAAGTAT | 0.0149 ± 0.062
GTGTTCTA | 0.231 ± 0.011
ACGGCGTA | -0.0493 ± 0.027
ATTTGAGA | -0.154 ± 0.037
AGCAAGCT | -0.0427 ± 0.01
AATCAACC | -0.0985 ± 0.018
AGAAGTGC | 0.232 ± 0.0082
AACCTCGA | 0.0311 ± 0.022
CTAAGAGC | -0.392 ± 0.031
AGGCCCAC | -0.165 ± 0.082
AAGCCGAC | -0.0913 ± 0.054
AACTTGGA | -0.064 ± 0.028
ACTTCCGA | 0.0946 ± 0.044
CCACCTCC | 0.305 ± 0.024
CGTTCAGC | 0.0353 ± 0.045
GAATACGC | -0.0852 ± 0.011
ACCGTCAA | 0.115 ± 0.0075
AACCGCGA | 0.303 ± 0.024
AGGGCGAC | 0.163 ± 0.066
GGGATGAC | 0.00826 ± 0.091

Sequence | PBM E-score of 8-mer
TCACCGCA | -0.0333 ± 0.086
CCAGCTGG | -0.184 ± 0.026
CGTCATAG | -0.129 ± 0.0068
GAACATAA | 0.00348 ± 0.022
TCGGGTAA | 0.0151 ± 0.028
CGGCCTGC | -0.195 ± 0.06
GCCTAAAC | 0.0865 ± 0.05
ATGGCCGA | -0.164 ± 0.039
GGCGGCAA | 0.162 ± 0.023
GCGGAGAC | -0.152 ± 0.04
AGCGCGTG | 0.27 ± 0.025
AGTAGTGC | -0.0779 ± 0.0032
CGGAAGCC | -0.237 ± 0.06
AGTGGCGA | 0.3324 ± 0.0019
GCAACATA | -0.0299 ± 0.062
GTGTCTGA | 0.296 ± 0.0069
GTGTCCTA | 0.0998 ± 0.015
GCGAAGAA | 0.246 ± 0.0095
ATTCCACG | -0.0485 ± 0.025
TGACACCA | 0.427 ± 0.02
TCGAATAA | -0.273 ± 0.066
CGCCCAAG | -0.0387 ± 0.12
CTCGGTCC | -0.173 ± 0.032
CCAGACAC | 0.231 ± 0.046
CATCGCCC | -0.00812 ± 0.048

Sequence | PBM E-score of 8-mer
CTAAACTA | -0.136 ± 0.052
CGGTTACA | 0.113 ± 0.013
CATTACCC | -0.23 ± 0.014
CGTGATAG | 0.23 ± 0.012
TGATTAAA | 0.0272 ± 0.034
ACCGAGAT | -0.0879 ± 0.041
ACAGGCTA | -0.14 ± 0.041
ATTTTAAG | -0.26 ± 0.015
CATTTTCG | -0.00885 ± 0.013
AAGGGCGT | 0.233 ± 0.028
AGGTAACG | 0.0205 ± 0.019
CACTCTCG | 0.254 ± 0.042
GGATAGAA | -0.216 ± 0.043
CCTGCGAG | 0.185 ± 0.021
GCTAGACA | 0.219 ± 0.01
GCCCTGCA | -0.119 ± 0.04
CGGCTGTA | -0.00709 ± 0.024
AACCGAAG | 0.144 ± 0.071
AGACGTAA | -0.2 ± 0.092
AAGATACC | -0.181 ± 0.06
CTCCTGAA | -0.211 ± 0.013
ATCCATTG | -0.235 ± 0.089
GGCATGGA | -0.162 ± 0.012
CTGAATGC | -0.17 ± 0.12
AGCGCCAG | 0.197 ± 0.0052

Sequence | PBM E-score of 8-mer
ACTCAGGC | -0.274 ± 0.065
CCTGTCAA | 0.309 ± 0.024
AGCACCCT | 0.309 ± 0.031
GTTATGTA | 0.0448 ± 0.081
TCCAGGGA | -0.0279 ± 0.065
CACACTCC | 0.402 ± 0.016
ACAGGGCG | 0.0776 ± 0.037
AGGAGCTG | 0.1919 ± 0.0018
AAGGGCGA | 0.0458 ± 0.039
ATCCCGTG | -0.0223 ± 0.015
AACATATC | -0.00325 ± 0.046
GCTCGGGA | -0.273 ± 0.042
CGGGAGAC | -0.0482 ± 0.029
GATACGTA | -0.103 ± 0.049
ATGTGTGA | 0.4845 ± 0.00059
ATCTTTCC | -0.1531 ± 0.00032
AAGTAATC | -0.203 ± 0.1
AGTGAAAG | 0.141 ± 0.041
CAAGGTCA | 0.0991 ± 0.0032
ATTCTCGC | 0.336 ± 0.016
CCATGCCA | -0.0498 ± 0.0084
ATGAACAT | -0.0253 ± 0.051
CAAACTAG | -0.0443 ± 0.031
CAGGATAG | -0.0621 ± 0.058
AGGTGCCC | 0.0662 ± 0.046

Sequence | PBM E-score of 8-mer
ATCTTGGC | -0.0915 ± 0.17
GAACAGTC | -0.0858 ± 0.063
AGAAAGAG | -0.128 ± 0.032
CCCGTTTC | -0.179 ± 0.071
ACCTAATC | 0.0479 ± 0.0054
AAAGATAT | -0.0962 ± 0.0051
CCAGATTC | -0.114 ± 0.033
CACGCCCG | 0.297 ± 0.048
TCGCAGCA | 0.176 ± 0.035
GAATGCCC | -0.221 ± 0.026
ATGTGGAG | -0.0959 ± 0.025
GAAACATC | -0.264 ± 0.048
ATTGCGCG | 0.0393 ± 0.076
ATCATTTA | -0.0119 ± 0.068
GGAAGCAA | -0.236 ± 0.11
GACACGGC | 0.187 ± 0.038
CATAAGGC | -0.0993 ± 0.083
AATACAGT | -0.247 ± 0.021
AAGTTTAA | 0.019 ± 0.088
CGAACGTC | -0.0889 ± 0.0086
AAAGGGTT | -0.228 ± 0.062
ACATACAA | -0.0412 ± 0.052
GACCTGCA | 0.0626 ± 0.036
CTCACGTA | 0.1 ± 0.032
AAACCCTG | -0.271 ± 0.044

Sequence | PBM E-score of 8-mer
CACTCGGG | 0.136 ± 0.014
CCCCAGCG | -0.0927 ± 0.023
TACCCCAA | -0.195 ± 0.0089
AACGAGAC | -0.103 ± 0.016
CATACAAA | -0.208 ± 0.0044
AGGTGCTG | 0.414 ± 0.019
AAAATTAG | 0.0885 ± 0.052
AGATTGCC | 0.171 ± 0.03
CGACAATA | 0.0899 ± 0.059
CATCCGTC | 0.0644 ± 0.028
TCGCATAA | 0.0968 ± 0.016
GTGATACA | 0.225 ± 0.042
ATTAGCCC | -0.168 ± 0.041
ATGCCTGA | -0.1085 ± 0.00094
GTCCTTCA | -0.179 ± 0.011
CTCCCAAG | -0.0536 ± 0.046
AAACTGAA | -0.132 ± 0.06
ACGACCGG | -0.111 ± 0.13
ATTATGTG | 0.144 ± 0.028
AAGGGTTC | -0.347 ± 0.0053
ACTTATTG | -0.142 ± 0.052
ATGTCGTC | -0.152 ± 0.032
ACTTCGCC | -0.00129 ± 0.099
CCTTTACA | 0.0882 ± 0.037
CCACGATA | -0.0627 ± 0.0064

Sequence | PBM E-score of 8-mer
CGAGTTCA | 0.167 ± 0.047
AAGGATAC | -0.163 ± 0.086
GGGCCTAA | -0.148 ± 0.024
ACCTCGTG | 0.213 ± 0.013
CTCTAATA | -0.232 ± 0.027
AACAGCCA | -0.0762 ± 0.0058
AATGACCT | -0.176 ± 0.042
ATTGGAAC | 0.0463 ± 0.024
CTCTGTTA | 0.0548 ± 0.021
CCATGGAA | -0.198 ± 0.016
GTGTGGAA | 0.353 ± 0.021
TAGTATCA | 0.0588 ± 0.082
AGGTGATG | 0.4179 ± 0.0014
GAAAGGAA | -0.11 ± 0.021
CTACATCA | -0.196 ± 0.047
GCACTGTA | -0.0517 ± 0.041
CTGACCAG | -0.247 ± 0.03
AGCGAGAG | 0.0436 ± 0.013
ATAGACGG | -0.276 ± 0.0086
AGTAGAGG | -0.0849 ± 0.094
TAACTGTA | -0.156 ± 0.02
AGTTACGC | -0.0446 ± 0.027
